Gametocyte viability data for 36 compounds are collected here from the supplement of paper PMC12297408.

Structures can show the parent of a compound that is named as a salt. The campaign covered roughly 1,300 compounds. About 40 (3%) showed activity. The list shows a part of the results.

For this experiment, the system named is Plasmodium falciparum NF54/iGP1_RE9H ulg8 stage V gametocytes. Nature of the experiment: gametocyte viability (luciferase signal relative to DMSO control) (% of DMSO control); higher = less gametocytocidal activity, active = 50 or less. The settings on record: exposure time: 72 h. Summed up: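 Compounds from 10 mM DMSO stocks were spotted at nanolitre scale into 96-well plates, and day-12 stage V NF54/iGP1_RE9Hulg8 gametocytes (~2.5% gametocytemia, 3% hematocrit; medium with 0.5% Albumax II) were added to reach 10 µM or 1 µM, one well per concentration. The plates were kept at 37 °C for 72 h. Luminescence was then read on an IVIS Lumina II after mixing 90 µl of culture with 10 µl D-luciferin (30 mg/ml). Viability values are relative to the plate's mean DMSO vehicle signal.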

As for `CC(C)(N)Cc1ccccc1` [Phentermine hydrochloride], the gametocyte viability was inactive: 91.4 (concentration: 1 µM) and inactive: 85.5 (concentration: 10 µM).

With `CCNCC(O)c1cccc(O)c1` (configuration not stated) [Etilefrine hydrochloride], the gametocyte viability (concentration: 1 µM) is inactive: 87.9 and the gametocyte viability (concentration: 10 µM) is inactive: 90.2.

Regarding `COc1ccc(C(CN(C)C)C2(O)CCCCC2)cc1` (configuration not stated) [Venlafaxine], the gametocyte viability (concentration: 1 µM) is inactive: 78.5 and the gametocyte viability (concentration: 10 µM) is inactive: 81.8.

Take `CNC(=O)Oc1ccc2c(c1)[C@]1(C)CCN(C)[C@@H]1N2C` [Eserine sulfate, physostigmine sulfate]: the gametocyte viability runs as follows: (concentration: 1 µM) inactive: 83.4; (concentration: 10 µM) inactive: 79.

As for `CN(C)C(=O)Oc1cccc([N+](C)(C)C)c1` [Neostigmine bromide], the gametocyte viability by setting is: (concentration: 1 µM) inactive: 83.4; (concentration: 10 µM) inactive: 88.4.

As for `CNC(C)(C)Cc1ccccc1` [Mephentermine hemisulfate], the gametocyte viability is, setting by setting: (concentration: 1 µM) inactive: 87.5; (concentration: 10 µM) inactive: 83.5.

Turning to `C[C@]12CCC(=O)C(O)=C1CC[C@@H]1[C@@H]2CC[C@]2(C)C(=O)CC[C@@H]12` [Formestane], the gametocyte viability by setting is: (concentration: 1 µM) inactive: 81.3; (concentration: 10 µM) inactive: 84.1.

As to `CCC1=C[C@H]2CN3CCc4c([nH]c5ccccc45)[C@](C(=O)OC)(C2)[C@H]13` [Catharanthine], the gametocyte viability by setting is: (concentration: 1 µM) inactive: 90.9; (concentration: 10 µM) inactive: 98.3.

On to `CC(C)C[C@H]1C(=O)N2CCC[C@H]2[C@]2(O)O[C@](NC(=O)[C@@H]3C=C4c5cccc6[nH]c(Br)c(c56)C[C@H]4N(C)C3)(C(C)C)C(=O)N12` [Bromocryptine mesylate], for which the gametocyte viability (concentration: 1 µM) was inactive: 84.2 and the gametocyte viability (concentration: 10 µM) was inactive: 66.9.

In the case of `CN1[C@@H]2CC[C@H]1C[C@@H](OC(=O)C(CO)c1ccccc1)C2` (some centres not stated) [Atropine sulfate monohydrate], the gametocyte viability reads like this: (concentration: 1 µM) inactive: 87.4; (concentration: 10 µM) inactive: 91.

Regarding `NCCCNCCSP(=O)(O)O` [Amifostine], the gametocyte viability runs as follows: (concentration: 1 µM) inactive: 86.2; (concentration: 10 µM) inactive: 88.

Consider `C#CCN(C)[C@H](C)Cc1ccccc1` [Selegiline hydrochloride], for which the gametocyte viability is, setting by setting: (concentration: 1 µM) inactive: 105; (concentration: 10 µM) inactive: 98.5.

For the compound `CN(C)C(=O)Oc1ccc[n+](C)c1` [Pyridostigmine iodid], the gametocyte viability was inactive: 88.9 (concentration: 1 µM) and inactive: 90.3 (concentration: 10 µM).

As for `C[C@@H]1O[C@@H](O[C@@H]2C=C3CC[C@@H]4[C@H](CC[C@]5(C)[C@@H](c6ccc(=O)oc6)CC[C@]45O)[C@@]3(C)CC2)[C@H](O)[C@H](O)[C@H]1O` [Proscillaridin A], the gametocyte viability reads like this: (concentration: 1 µM) inactive: 81.2; (concentration: 10 µM) inactive: 76.2.

Turning to `C[C@]12CC[C@@H](O)C[C@H]1CC[C@@H]1[C@@H]2CC[C@]2(C)C(=O)CC[C@@H]12` [3-alpha-Hydroxy-5-beta-androstan-17-one], the gametocyte viability is, setting by setting: (concentration: 1 µM) inactive: 86; (concentration: 10 µM) inactive: 76.8.

Take `O=c1[nH]c2ccccc2n1C1CCN(CCCC(c2ccc(F)cc2)c2ccc(F)cc2)CC1` [Pimozide]: the gametocyte viability (concentration: 1 µM) was inactive: 83.3 and the gametocyte viability (concentration: 10 µM) was inactive: 82.9.

As for `C[N+]1(C)CCCC(OC(=O)C(O)(c2ccccc2)c2ccccc2)C1` (configuration not stated) [Mepenzolate bromide], the gametocyte viability was inactive: 96.4 (concentration: 1 µM) and inactive: 93.7 (concentration: 10 µM).

For `OC(c1ccccc1)(c1ccccc1)C1CCNCC1` [Azacyclonol], the gametocyte viability is, setting by setting: (concentration: 1 µM) inactive: 89.1; (concentration: 10 µM) inactive: 92.8.

As to `NC(=O)OCCCc1ccccc1` [Phenprobamate], the gametocyte viability is inactive: 83.5 (concentration: 1 µM) and inactive: 64.5 (concentration: 10 µM).

Turning to `CCC1(C)CC(=O)NC(=O)C1` [Bemegride], the gametocyte viability was inactive: 90.9 (concentration: 1 µM) and inactive: 81.7 (concentration: 10 µM).

As to `CCCC(C)(COC(N)=O)COC(=O)NC(C)C` (configuration not stated) [Carisoprodol], the gametocyte viability runs as follows: (concentration: 1 µM) inactive: 78.8; (concentration: 10 µM) inactive: 77.9.

As to `COc1ccc(OC)c(C(O)C(C)N)c1` (configuration not stated) [Methoxamine hydrochloride], the gametocyte viability by setting is: (concentration: 1 µM) inactive: 87.2; (concentration: 10 µM) inactive: 88.9.

Regarding `CCC(=O)O[C@H]1CC[C@H]2[C@@H]3CCC4=CC(=O)CC[C@]4(C)[C@H]3CC[C@]12C` [Testosterone propionate], the gametocyte viability is, setting by setting: (concentration: 1 µM) inactive: 80.6; (concentration: 10 µM) inactive: 78.8.

For the compound `C=CCC1(CC(C)C)C(=O)NC(=O)NC1=O` [Butalbital], the gametocyte viability was inactive: 88.8 (concentration: 1 µM) and inactive: 86.7 (concentration: 10 µM).

For the compound `O=C(CCCN1CCC(n2c(=O)[nH]c3ccccc32)CC1)c1ccc(F)cc1` [Benperidol], the gametocyte viability (concentration: 1 µM) is inactive: 80.1 and the gametocyte viability (concentration: 10 µM) is inactive: 87.1.

Regarding `C[C@@H]1CN([C@H]2CC[C@](C#N)(c3ccc(F)cc3)CC2)CC[C@]1(C(=O)O)c1ccccc1` [Levocabastine hydrochloride], the gametocyte viability (concentration: 1 µM) is inactive: 86.5 and the gametocyte viability (concentration: 10 µM) is inactive: 88.3.

Regarding `C[C@]12COC(=O)C[C@@H]1CC[C@@H]1[C@@H]2CC[C@@]2(C)[C@H]1CC[C@]2(C)O` [Oxandrolone], the gametocyte viability by setting is: (concentration: 1 µM) inactive: 81.4; (concentration: 10 µM) inactive: 78.9.

For the compound `O=P1(N(CCCl)CCCl)NCCCO1` (configuration not stated) [Cyclophosphamide], the gametocyte viability is inactive: 80.6 (concentration: 1 µM) and inactive: 81.9 (concentration: 10 µM).

As for `CN1C(=O)CCS(=O)(=O)C1c1ccc(Cl)cc1` (configuration not stated) [Chlormezanone], the gametocyte viability was inactive: 83.3 (concentration: 1 µM) and inactive: 91.3 (concentration: 10 µM).

With `CN(C)[C@@H]1C(=O)C(C(N)=O)=C(O)[C@@]2(O)C(=O)C3=C(O)c4c(O)cccc4[C@@](C)(O)[C@H]3[C@H](O)[C@@H]12` [Oxytetracycline dihydrate], the gametocyte viability reads like this: (concentration: 1 µM) inactive: 82.8; (concentration: 10 µM) inactive: 89.4.

On to `C[C@]12C/C(=C/O)C(=O)C[C@@H]1CC[C@@H]1[C@@H]2CC[C@@]2(C)[C@H]1CC[C@]2(C)O` [Oxymetholone], for which the gametocyte viability is inactive: 90.6 (concentration: 1 µM) and inactive: 90.5 (concentration: 10 µM).

For the compound `CC(=O)[C@H]1CC[C@H]2[C@@H]3CC[C@H]4C[C@H](O)CC[C@]4(C)[C@H]3C(=O)C[C@]12C` [Alfaxalone], the gametocyte viability was inactive: 85.4 (concentration: 1 µM) and inactive: 79.8 (concentration: 10 µM).

As to `C=C1C[C@@H]2[C@H](CC[C@]3(C)C(=O)CC[C@@H]23)[C@@]2(C)C=CC(=O)C=C12` [Exemestane], the gametocyte viability is inactive: 83.4 (concentration: 1 µM) and inactive: 74.9 (concentration: 10 µM).

Regarding `Oc1ccc2c3c1O[C@H]1[C@@H](O)CC[C@@]4(O)[C@@H](C2)N(CC2CCC2)CC[C@]314` [Nalbuphine hydrochloride], the gametocyte viability runs as follows: (concentration: 1 µM) inactive: 98.9; (concentration: 10 µM) inactive: 111.

For `CC(=O)O[C@H]1CC[C@@]2(C)C(=CC[C@@H]3[C@@H]2CC[C@]2(C)C(=O)CC[C@@H]32)C1` [Dehydroisoandosterone 3-acetate], the gametocyte viability is inactive: 90.9 (concentration: 1 µM) and inactive: 90 (concentration: 10 µM).

As to `O=C(NCNC(=O)NC1C(=O)NC(=O)N1CO)NC1C(=O)NC(=O)N1CO` (configuration not stated) [Imidurea], the gametocyte viability (concentration: 1 µM) was inactive: 84.1 and the gametocyte viability (concentration: 10 µM) is inactive: 88.9.
